# Assay results taken from PubChem BioAssay AID485344 (National Center for Advancing Translational Sciences (NCATS), 2010).
# Hit rate of the full screen: of about 340,000 compounds, about 6,900 (2%) were called active. Rule as the data show it: active = inhibition above about 30%; inactive = below that, where a call was filed. This is a selection; strong and weak results do not stand in their true shares. Where no call is shown, the source filed none.
# Target: D(2) dopamine receptor (Homo sapiens) (UniProt P14416)
# Experiment: HTS Assay for Allosteric Antagonists of the Human D2 Dopamine Receptor: Primary Screen for Antagonists; also: 0% is about no effect
# Conditions: HEK293 TREx D2 cells, calcium flux, dopamine EC80; at 10 µM; stronger effect = higher value
# Method in brief: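 In this primary screen, negative modulation is detected by tracking calcium flux after an EC80 dopamine challenge in inducible HEK293 T-REx D2 cells preexposed to test compound for 180 s.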
# Chain of UniProt P14416 (P14416 whole entry, looked up): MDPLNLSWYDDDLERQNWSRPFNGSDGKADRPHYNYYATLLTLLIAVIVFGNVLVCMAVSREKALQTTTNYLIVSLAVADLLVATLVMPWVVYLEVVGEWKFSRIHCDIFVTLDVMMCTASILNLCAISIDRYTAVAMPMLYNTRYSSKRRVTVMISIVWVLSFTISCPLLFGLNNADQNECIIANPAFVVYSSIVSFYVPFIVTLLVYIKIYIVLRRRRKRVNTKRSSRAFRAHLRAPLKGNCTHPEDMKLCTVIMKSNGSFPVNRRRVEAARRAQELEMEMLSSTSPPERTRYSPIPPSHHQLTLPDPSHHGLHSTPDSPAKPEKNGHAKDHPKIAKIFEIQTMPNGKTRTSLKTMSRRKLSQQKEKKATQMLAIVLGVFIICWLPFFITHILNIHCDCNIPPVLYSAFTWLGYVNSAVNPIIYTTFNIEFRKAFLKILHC
row,Compound,inhibition
1,COc1ccc(-c2nc(CSCC(=O)NCCc3ccc(OC)c(OC)c3)c(C)o2)cc1,-14.2%
2,CCc1nn2c(=O)c(S(=O)(=O)Nc3ccc(C)cc3C)c(C)nc2s1,-13.7%
3,Cc1ccc(S(=O)(=O)c2nnn3c2nc(N(C)Cc2ccccc2)c2cc(Cl)ccc23)cc1C,-2.63%
4,O=C(Nc1cc(Cl)ccc1O)c1cc(-c2ccc3c(c2)OCO3)on1,14.8%
5,COc1ccc(C2C(C(=O)Nc3cccnc3)=C(C)Nc3nc(-c4ccc(OC)c(OC)c4)nn32)cc1 (stereo unspecified),-1.71%
6,CCOC(=O)c1c(C)[nH]c(CCC(=O)NCc2cc(Br)ccc2OC)c1C,7.4%
7,Cc1c(C(=O)N2CCCC2)oc2c1-c1nn(CC(=O)NCc3ccccc3F)cc1CC2,-7.48%
8,COc1ccc(CNC(=O)CCS(=O)(=O)c2cc3c4c(c2)CCN4C(=O)CC3)cc1OC,-2.44%
9,COc1ccc(NC(=O)c2ccc(CN3CCN(c4ccccc4)CC3)cc2)cc1,active: 82.4%
10,COc1ccc(OC)c(C(=O)NC(CC(N)=O)c2ccc(N3CCN(c4ccccn4)CC3)c([N+](=O)[O-])c2)c1 (stereo unspecified),active: 31.7%
11,Cc1cc(Cl)ccc1NC(=O)CCS(=O)(=O)c1ccc2c(c1)CC(C)N2C(=O)C1CC1 (stereo unspecified),-0.501%
12,CCOc1ccccc1N(CC)C(=O)Cn1ncc2c1-c1ccccc1OC2,7.49%
13,CCOc1ccc(NC(=O)CSc2nc(-c3ccccc3)c3cc(OCC)ccc3n2)cc1,8.74%
14,COc1ccc(CNC(=O)c2cnc3sc4cc(OC)ccc4n3c2=O)cc1,10.1%
15,CCN1CCN(c2nc(Nc3ccccc3)nc(N)c2[N+](=O)[O-])CC1,active: 84.2%
16,CCC(CC)C(=O)N1CCc2cc(OC)c(OC)cc2C1COc1ccc2c(C)cc(=O)oc2c1 (stereo unspecified),-5.72%
17,CCOc1ccc2nc(N(Cc3cccnc3)C(=O)c3ccco3)sc2c1,13.2%
18,O=C(c1cc(S(=O)(=O)N2CCCC2)c[nH]1)N1CCN(c2cccc(Cl)c2)CC1,3.68%
19,c1ccc(Nc2c(-c3ccccc3)nc3ncccn23)cc1,-6.71%
20,CCN1C(=O)c2ccccc2Sc2ccc(NC(=O)Cc3ccc(OC)c(OC)c3)cc21,25.7%
21,COc1ccc(CN(C(=O)Nc2cc(C)ccc2C)C2CCN(C(C)=O)CC2)cc1,2.89%
22,CCOc1cccc(CC(=O)NCc2ccc3c(c2)CCN3C(=O)c2cccc(C)c2)c1OCC,-27.1%
23,COc1cc(NS(=O)(=O)c2ccc(NC(=O)COc3ccc(Cl)cc3Cl)cc2)nc(OC)n1,3.36%
24,COc1cccc(C2C(C(N)=O)=C(C)Nc3nc(CCCO)nn32)c1 (stereo unspecified),6.69%

row,Compound,inhibition
1,COc1cccc(CNC(=O)Cc2c(C)c3cc4c(C)coc4cc3oc2=O)c1,3.91%
2,Cc1cc(C)cc(NC(=O)CSc2nccn2C2CCCC2)c1,-11.9%
3,CCc1ccc(NC(=O)N2CCN(c3nnc(C)c4c(C)n(-c5ccc(Cl)cc5)nc34)CC2)cc1,-11.8%
4,CCOc1c(Cl)cc(C(=O)NCCN2CCCCC2)cc1Cl,active: 33.7%
5,COc1cccc(NC(=O)c2csc3c2CCCCC3)c1,1.75%
6,O=C(NCc1ccccc1Cl)c1cc(-c2ccccc2)n[nH]1,5.1%
7,COCCn1c(CCC(=O)Nc2ccc(OC)c(OC)c2)nc2cccnc21,2.63%
8,O=C(Cn1c2ncccc2c(=O)n1-c1ccccc1)NCc1ccccc1,6.88%
9,O=C(CS(=O)(=O)c1nc(-c2ccc(Cl)cc2)cn1-c1ccccc1)Nc1cccc(Cl)c1,15.1%
10,Cc1nc(-c2ccccc2)sc1-c1ccc(SCC(=O)Nc2ccccc2)nn1,11.3%
11,Cc1oc(-c2cccc(Br)c2)nc1CN1CCC(C(=O)NCc2ccccc2)CC1,10%
12,Cc1ccc(NC(=O)c2ccc(F)c(S(=O)(=O)NCCc3ccccc3)c2)cc1F,1.67%
13,O=C(c1ccc2c(c1)N(Cc1ccccc1F)C(=O)c1ccccc1S2=O)N1CCC(Cc2ccccc2)CC1 (stereo unspecified),-3.98%
14,Brc1ccc(CN2CCc3nc(Nc4ccccc4)ncc3C2)s1,3.61%
15,COc1ccc(OC)c(CNC(=O)c2cc3c(=O)oc4ccc(C)cc4c3s2)c1,-1.75%
16,Cc1ccc(Cl)cc1NC(=O)Cn1nnc2sc3c(c2c1=O)CCC(C(C)(C)C)C3 (stereo unspecified),10.1%
17,COc1ccc(CCNc2ncnc3c2cnn3-c2ccc(F)cc2)cc1,5.2%
18,CCOC(=O)c1cc(-c2ccc(F)cc2)n(CCC(=O)Nc2nc3cc(C)c(C)cc3s2)c1C,-2.56%
19,CCOc1ccc(-n2c(-c3ccc(Br)cc3)cc3c2CC(C)(C)CC3=O)cc1,-8.06%
20,Cc1nnc2c3ccccc3nc(Nc3ccc(F)cc3Cl)n12,8.06%
21,Cc1nc(N2CCCC2)ncc1C(=O)Nc1ccc(OC(F)(F)F)cc1,5.35%
22,COc1ccc(OCc2ccc(-c3nc(C#N)c(NCc4ccc(F)cc4)o3)o2)cc1,-17.8%
23,OCCN1CCN(c2ncnc3c2cnn3-c2cccc(Cl)c2)CC1,18.2%
24,COc1cc(OC)cc(-n2c(=O)c3sccc3n(Cc3cc(=O)n4c(C)cccc4n3)c2=O)c1,13.7%

row,Compound,inhibition
1,COc1cccc(CNC(=O)Nc2cn(CC(C)C)c(=O)c3ccccc23)c1,11%
2,COc1ccc(-c2oc3ncn4nc(-c5ccccc5OC)nc4c3c2-c2ccc(OC)cc2)cc1,4.02%
3,Cc1cc2nn(-c3ccc(F)cc3)nc2cc1NC(=O)c1ccc(C(C)(C)C)cc1,6.61%
4,CCCOc1ccc(C2C(=O)N(C3CCCCCC3)CC(=O)N2C(C)C)cc1OC (stereo unspecified),-13.9%
5,S=c1[nH]nc(COc2ccccc2)n1/N=C/c1ccccc1Br,active: 38.1%
6,COc1cc(CN(C(=O)c2ccccc2)c2ccccn2)cc(OC)c1OC,13.6%
7,COc1ccc2c(c1)c(=O)c(C(=O)c1ccc(F)cc1)cn2CC(=O)Nc1ccc2c(c1)OCCO2,0.0882%
8,COc1ccc(-c2cn3cccnc3n2)cc1NC(=O)c1ccccc1C(F)(F)F,10.3%
9,O=C(CC(c1ccccc1)c1cc(Br)ccc1O)NCCN1CCOCC1 (stereo unspecified),active: 77%
10,Cn1c(CNC(=O)CSc2nc(-c3ccccc3F)nc3cc(=O)[nH]n23)nc2ccccc21,-2.37%
11,CC(C)c1ccc(-c2noc(SCC(=O)N3CCN(c4ccccc4F)CC3)n2)cc1,-6%
12,O=C(NCc1cccs1)c1ccc2c(c1)sc1nc(-c3ccccc3)cn12,-27.9%
13,Cc1c(C(=O)N2CCC(C(=O)Nc3ccc(F)c(Cl)c3)CC2)sc2nc[nH]c(=O)c12,19.1%
14,Cc1ccc(NC(=O)Cn2c(=O)ccc3cc(S(=O)(=O)N4CCCC4)ccc32)cc1C,-4.47%
15,COc1ccc(CCNc2ccc(S(=O)(=O)N3CCN(C)CC3)cc2[N+](=O)[O-])cc1,active: 64.7%
16,Cc1cn2c(=O)cc(COC(=O)COc3ccc(C)c(C)c3)nc2s1,8.59%
17,CCCOc1ccc(C(=O)N(Cc2ccc(Cl)cc2)Cc2ccco2)cc1,-11.1%
18,Cc1ccc(CNC(=O)c2ccc3c(c2)NC(=O)C(CS(=O)(=O)Cc2cccc(C)c2)N3)cc1 (stereo unspecified),10.8%
19,COc1cc(NC(=O)CCS(=O)(=O)c2ccc(Br)cc2)cc(OC)c1,-4.22%
20,CCCCN(C)C(=O)CN1C(=O)c2cccnc2Oc2ccc(Cl)cc21,-1.04%
21,COc1cc(C(=O)Nc2cc(C)c(O)c(-c3nc4cc(Cl)ccc4o3)c2)cc(OC)c1OC,4.55%
22,CCN(CC)C(=O)c1sc2c(c1C)c(=O)n(-c1ccccc1)c(=O)n2CC(=O)N(CC)c1cccc(C)c1,5.53%
23,Oc1ccc(C2=NN(c3ccccc3)C(c3ccc(F)cc3)C2)cc1 (stereo unspecified),active: 32.9%
24,CCOC(=O)CSc1nnc(-c2ccc(OC)cc2)o1,12.9%

row,Compound,inhibition
1,COc1cccc(-c2nc3c(C#N)c[nH]n3c2NC2CCCCC2)c1,-4.25%
2,COc1ccc(-c2csc3ncnc(Nc4ccc(OC)cc4OC)c23)cc1,12.9%
3,CCc1cccc(NC(=O)Cn2c(=O)n(CC3CCC(C(=O)NC)CC3)c(=O)c3sccc32)c1 (stereo unspecified),7.94%
4,COc1cccc(CNC(=O)CN(c2ccc(C)cc2)S(=O)(=O)N(C)C)c1OC,-5.14%
5,COc1cccc(CNC(=O)Cn2c(=O)cc(C)c3c(C)nn(C)c32)c1OC,15.6%
6,O=C(NC1CCCCC1)c1ccc2c(c1)N(Cc1ccc(F)cc1)C(=O)c1ccccc1S2(=O)=O,-0.362%
7,COc1cc(NS(=O)(=O)c2cc(Br)cc3c2N(C(C)=O)C(C)C3)cc(OC)c1 (stereo unspecified),-1.15%
8,N#CC1=C(N)N(c2ccc(Cl)cc2)C2=C(C(=O)CCC2)C1c1cc(CN2CCOCC2)cs1 (stereo unspecified),2.3%
9,Cc1cccc(N(C)C(=O)C2CCC(CNS(=O)(=O)c3cccc4nsnc34)CC2)c1 (stereo unspecified),-1%
10,Cn1c(C(=O)NCc2ccccc2Cl)cc2sc(Cl)cc21,-14.3%
11,Cc1ccc(OCCn2c(CNc3ccccc3C)nc3ccccc32)cc1,8.7%
12,Cc1cc(NC(=O)c2cnn(-c3ccccc3)c2-n2cccc2)ccc1Br,11.3%
13,O=C(Nc1ccc(F)cc1)c1nc(SCc2ccccc2F)ncc1Cl,12.7%
14,COc1ccc(-c2nsc(NC(=O)c3oc4ccc(Cl)cc4c3C)n2)cc1,5.21%
15,CCOc1ccccc1-n1c(N)c(C(=O)OC)c2nc3ccccc3nc21,16.8%
16,Cc1cccnc1NC(=O)CSc1ccc2c(c1)OCCO2,active: 32.1%
17,N#C/C(=C/c1ccc(O)cc1)c1nc(-c2ccc(-c3ccccc3)cc2)cs1,1.86%
18,Cc1nc(-c2cccc(F)c2)sc1CCNC(=O)Cc1ccc(F)cc1,21.5%
19,CCCSC1=NC2(CCN(C(=O)NC3CCCCC3)CC2)N=C1c1ccc(OC)cc1,-5.89%
20,O=c1c2c3c(sc2nnn1CCCCOc1ccc(Cl)cc1)CCCC3,11.5%
21,COc1cc(-c2noc(-c3cc4cccc(C)c4oc3=O)n2)cc(OC)c1OC,7.52%
22,Brc1cccc(-c2nn(-c3ccccc3)c3c2cnc2cc4c(cc23)OCO4)c1,13.3%
23,CCc1cccc(C)c1NC(=O)C1CCN(S(=O)(=O)c2cc(Br)cc3c2N(C(C)=O)CC3)CC1,-20.5%
24,COc1ccc(NC(=O)Nc2cccc(-c3noc(C)n3)c2)cc1,5.4%
